The results in this text go back to the RNAGym collection of RNA variant scans (doi:10.1101/gad.245936.114).

B1: tRNA (parent)
chain: CUCUCGGUAGCCAAGUUGGUUUAAGGCGCAAGACUUUAAUUUAUCACUACGAAAUCUUGAGAUCGGGCGUUCGACUCGCCCCCGGGAGAUUUUUUCCUCGAGCAA

Variants at the floor of the assay are shown more often than the library holds them. A value given as a limit tells only on which side of the number the result lay.

In this data set the parent is B1. Kind of data set: nonsense suppression (GFP-seq) (ratio to wild type); higher = more function; SUP4oc tRNA, yeast GFP reporter sort-seq. The procedure, abridged:
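Yeast were grown in raffinose/galactose medium with 80 mg/L adenine, each strain bearing a genome-integrated ochre-suppressor tRNA variant from a ~3% random-mutation library, a galactose-driven GFP ochre reporter, and RFP. After sorting into GFP/RFP bins, every bin was sequenced on an Illumina platform at phred ≥30. The GFPSEQ value, a measure of nonsense suppression, is the weighted bin median GFP/RFP relative to the unmutated parent tRNA, using each variant's estimated cell share per bin as the weight. Only variants with ≥100 reads and ≥30 cells were included.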
Regarding AUCUCGGUAGCCAAGUUGGUUUUAGGCGCAAGACUUUAAUUUAUCACUACGAAAUCUUGAGAUCGGGCGUUCGACUCGCCCCCGGGAGAUUUUUUCCUCGAGCAA, the nonsense suppression was at most 0.026. As for CUCUCGGUAGCCAAGUUGGUUUAAGGCGCAAGACUUUAAUUUAUCACUACGAAAUCUUGAGAUCGCGCGUUCGACUCGCCCACGGGAGAUUUUUUCCUCGAGCAA, the nonsense suppression was at most 0.026. The value for CUCUCGGUAGCCAUGUUGGUUUAAGGCUCUAGACUUUAAUUUAUCACUACGAAACCUUGAGAUCGGGCGUUCGACUCGCCCUCGGUAGAUUUUUUCCUCGAGCAA was at most 0.026.

As for CUCUCGGUAGCCAAGUUUGUUUAAGGCGCAAGACUUUAAUUUAUCACUACGAAAUCGUGUGAUCGGGCGUUCGACUCGCCCCCGAGAGAUUUUUUCCUCGAGCAA, the nonsense suppression was at most 0.026. Consider AUCUCGGUUGCCAUGUUGGUUUAAGGCGCAAGAUUUUAAUUUAUCACUACGAAAUCUUGAGAUCGGGCGUUCGACUCGCCCCCGGGAGAUUUUUUCCUCGAGCAA, for which the nonsense suppression is at most 0.026.

As for CUCUCGGUAGCCAAGUUGGACUAAGGCGCAACACUUUAAUUUAUCACUACGAAAUCUUGAGAUCGGGCGUCCGACUCGCCCCCGGGAGAUUUUUUCCUCGAGCAA, the nonsense suppression was at most 0.026. Take CUCUCGGUAGCCAAGUUGGUUUAAGGCGCAAGACUUUAAUUUAUCACUACGAAAUCUUGCGAUUGCCCUUUCGACUCGCCCCCGGGAGAUUUUUUCCUCGAGCAA: the nonsense suppression is at most 0.026. Regarding UUCUCGGUAGCCAAGUUGGUUUAAGGCGCAAGACUUUAAUUUAUCACUACGAAAUCUUGAGAUCGGGCGUUCGACUCGCCCCCGGUAGAUUUUUUCCUCGAGCAA, the nonsense suppression is at most 0.026. For the variant CUGUCGGUAUCCAACUUGGUUUAAGGCGCAAGACUUUAAUUUAUCACUACGAAAUCUUGAGAUCGGGCGGUCGACUCAUCCCUGGGAGAUUUUUUCCUCGAGCAA, the nonsense suppression is at most 0.026.

Consider CUCUCGGUAUCCAAGUAGGUUUAAGGCGCAAGACUUUAAUUUAUCACUACGAAAUCUUGAGAUCGGGCGUUCGACUCGCCCCCGGGAGAUUUUUUCCUCGAGCAA, for which the nonsense suppression was at most 0.026. CUCUCGGUAGCCAAGUUGGUUUAAGGCGCAAGACUUUAAUUUAUCACUACGAAAGCUUGAGAUCGGGCGUUCGACUCGCCCCCUGGAGAUUUUUUCCUCGAGCAA: the nonsense suppression is at most 0.026.

For CUCUCGGUAGCCAAGUUGGUUUAAGGCGCAAGACUUUAAUUUAUCACUACGAAACCUUGAGAUCGGACGUUCGACUCGCGCCCGGGAGAUUUUUUCCUCGAGCAA, the nonsense suppression was at most 0.026. CCCUCGGUAGCCAAGUUGGUUUAAGGUGCAAGACUUUAAUUUAUCACUACGAAAUCUUGAGAUCGGGCGUUCGACUCGCCCCCGGGAGAUUUUUUCCUCGAGCAA: the nonsense suppression is at most 0.026. The value for CUCUAAGUAGCCAAGUUGGUUUAAGGCGCAAGACUUUAAUUUAUCACUACGAAAUCUUGAGAUCGGGCGUUCGACACGCCCCCGGGAGAUUUUUUCCUCGAGCAA was at most 0.026; that for CUCUCGGUAGCCAAGGUGGUUUAAGGUGCAUGACUUUAAUUUAUCACUACGAAAUCUUGAGAUCGGGCGUUCGACUCGCCCCCGGGAGAUUUUUUCCUCGAGCAA was at most 0.026.

On to CUCUCGGUAGCCAAGUUAGUUUAAGGCGCUAGACUUUAAUUUAUCACUACGAAAUCUUUCUAUCGGGCGUCCGACUCGCCCCCGGGAGAUUUUUUCCUCGAGCAA, for which the nonsense suppression is at most 0.026.

As to CUCUCGGUAGCGAACUUGGUUUAAGGCGCAAGACUUUAAUUUAUCACUACGAAAUCUUGUUAUCGGGCGGUCGACUCGCCCCCGGGAGAUUUUUUCCUCGAGCAA, the nonsense suppression was at most 0.026.

For UUCUCGGUAGCCAAGUUGGUUUAAGGCGCAAGACUUUAAUUUAUCACUACGAAAUCUUGAGAUCGGGCGGUCGACUCGCCCCGGGGAGAUUUUUUCCUCGAGCAA, the nonsense suppression is at most 0.026. Regarding CUCUCGGUAGCCCAGUUCGGUUAAGGCGCAUGACUUUAAUUUAUCACUACGAAAUCUUGAGAUCGGGCGUUCGACUCGCCCCCGGGAGAUUUUUUCCUCGAGCAA, the nonsense suppression turned out to be 0.134. The value for CCCUCGGUAGCCAAGUUGGUGUAAGGCGCAAGACUUUAAUUUAUCACUACGAAAUCUUGAGAUCGGGGGUUCGACUCGCCCCCGGGAGAUUUUUUCCUCGAGCAA was at most 0.026; that for CCCUCGGUAGCCAAGUUGGUCUAAGGCGCAAGACUUUAAUUUAUCACUACGAAAUCGUGAGAUCGGGCGUUCGACUCGCCCCCGGGAGAUUUUUUCCUCGAGCAA was at most 0.026. Regarding CUCUCGUUAGCCACGUUGGUUUAAGGCGCAAGACUUUAAUUUAUCACUACGAAAUCUUGAGAUCGCGCGUUCGACUCGCCCCCGGGACAUUUUUUCCUCGAGCAA, the nonsense suppression was at most 0.026. On to CUCUCGGCAGCCAAGUUGGUCUAAGGCGCAAGACUUUAAUUUAUCACUACGAAAUCUUGAGACCGGGCGUUCGACGCGCCCCCGGGAGAUUUUUUCCUCGAGCAA, for which the nonsense suppression is at most 0.026. Turning to CUUUCGGUAGCCAAGUUGGUUUAAGGCGCAAGACUUUAAUUUAUCACUACGAACUCAUGAGAUCGGGCGUUCGACUCGCCCCCGGGAGAUUUUUUCCUCGAGCAA, the nonsense suppression is at most 0.026. As for CUCUCGGUAGCCAAGUUGGUUGGAGGCGCAAGAAUUUAAUUUAUCACUACGAAAUCUUGAGAUCGGGCGUUCGACUCGCCCCCGGGAGAUUUUUUCCUCGAGCAA, the nonsense suppression is at most 0.026. In the case of CUCUCGGUAGCCAAGUUGGUUUAAGGUGGAAGACUUUAAUUUAUCACUACGAAAUCUUGAGAUCGGGCAUUCGACUCGCCCCCGGGAUAUUUUUUCCUCGAGCAA, the nonsense suppression was at most 0.026. Consider CUCUCGGUAGCCAAGUUGGUUUAAGGCGCAAGACUUUAAUUUAUCACUACGAAAUCUCGAGAUCCGGCGUUCGACUCGCCCUCGGGAGAUUUUUUCCUCGAGCAA, for which the nonsense suppression was at most 0.026.
